# Data reported in publication PMC4336329 (PLoS ONE, 2015).
# Screen size: about 310,000 compounds; about 2,200 (0.71%) showed an effect of 50% or more. Effects have a minus sign here. Some of the results follow.
# Biological target: human ether-à-go-go-related gene (hERG) potassium channel (human, UniProt Q12809)
# Assay: primary screen, population patch clamp on CHO cells stably expressing hERG
# Chain of human ether-à-go-go-related gene (hERG) potassium channel (Q12809 whole entry, looked up): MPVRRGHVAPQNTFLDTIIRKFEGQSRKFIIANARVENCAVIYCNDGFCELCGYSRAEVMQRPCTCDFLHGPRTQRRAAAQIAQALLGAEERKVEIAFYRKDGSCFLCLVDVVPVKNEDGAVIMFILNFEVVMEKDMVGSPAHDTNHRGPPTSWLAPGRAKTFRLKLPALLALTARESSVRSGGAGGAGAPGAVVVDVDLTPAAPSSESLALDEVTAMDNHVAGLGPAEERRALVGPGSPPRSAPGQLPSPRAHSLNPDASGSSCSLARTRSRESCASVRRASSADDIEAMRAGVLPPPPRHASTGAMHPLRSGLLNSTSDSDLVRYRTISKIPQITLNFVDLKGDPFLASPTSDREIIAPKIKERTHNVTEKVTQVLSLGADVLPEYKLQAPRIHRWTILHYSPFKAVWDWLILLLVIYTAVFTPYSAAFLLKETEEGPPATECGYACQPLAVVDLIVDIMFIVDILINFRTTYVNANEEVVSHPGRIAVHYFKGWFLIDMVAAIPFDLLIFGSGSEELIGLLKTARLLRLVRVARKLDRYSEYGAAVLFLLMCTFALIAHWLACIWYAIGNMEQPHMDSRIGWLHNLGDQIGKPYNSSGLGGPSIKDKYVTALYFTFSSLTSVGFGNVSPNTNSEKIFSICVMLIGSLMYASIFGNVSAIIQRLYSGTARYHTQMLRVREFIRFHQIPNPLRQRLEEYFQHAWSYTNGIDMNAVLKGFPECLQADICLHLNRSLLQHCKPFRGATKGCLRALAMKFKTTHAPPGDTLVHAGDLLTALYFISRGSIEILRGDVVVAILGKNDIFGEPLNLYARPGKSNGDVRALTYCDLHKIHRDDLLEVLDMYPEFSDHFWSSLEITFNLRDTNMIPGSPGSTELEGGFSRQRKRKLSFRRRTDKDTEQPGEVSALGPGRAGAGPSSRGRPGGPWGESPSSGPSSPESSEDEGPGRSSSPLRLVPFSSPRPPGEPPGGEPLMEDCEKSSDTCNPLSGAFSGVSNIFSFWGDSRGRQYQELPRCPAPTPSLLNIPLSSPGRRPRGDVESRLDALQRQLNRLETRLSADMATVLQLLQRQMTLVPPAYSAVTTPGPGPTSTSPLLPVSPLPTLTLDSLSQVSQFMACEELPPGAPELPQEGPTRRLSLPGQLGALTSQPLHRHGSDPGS
row,SMILES,"hERG current change (%, negative = inhibition) at 1uM [%]"
1,COc1ccc(NC(=O)Cc2nnc(N)s2)cc1,4.62
2,CCCCc1ccc(NC(=O)NCc2cccnc2)cc1,-13.3
3,CN(CC(=O)O)S(=O)(=O)c1ccc2[nH]c(=O)c(=O)[nH]c2c1,-4.88
4,COc1ccc(Cc2noc(COc3ccc(Cl)cc3)n2)cc1,9.9
5,O=[N+]([O-])c1ccc(-c2csc3[n+]2CCS3)cc1.[Br-],-18.1
6,N#CCc1ccc(NC(=O)c2ccccc2C(=O)Nc2ccc(CC#N)cc2)cc1,11.5
7,COc1ccc(-c2cc(C(=O)N3CC4(C)CC3CC(C)(C)C4)no2)cc1 (centres unmarked),13
8,CC(=O)CSc1nc2c(c(=O)[nH]c(=O)n2C)n1Cc1cccc(Br)c1,4.17
9,COC(=O)c1c(C)nc(C)c(C(=O)OC)c1-c1ccsc1,10.9
10,COc1cccc(C(=O)OC(C)C(=O)NCC2CCCCC2)c1 (centres unmarked),-1.02
11,NS(=O)(=O)c1ccc(CCNC(=O)c2cc(-c3ccccn3)nc3ccc(Br)cc23)cc1,2.43
12,Cc1cccc(C)c1NC(=O)CSc1nnc(NC(=O)c2ccccc2C(=O)O)s1,11.7
13,COc1ccc(CNS(=O)(=O)c2ccc3c(c2)NC(=O)C(C)S3)cc1 (centres unmarked),5.45
14,N/C(=N\OC(=O)c1ccc(F)cc1)c1nonc1N,6.95
15,COc1ccc(CNC(=O)/C=C/C(=O)O)cc1,-2.9
16,CCCCOC(C)n1cc(F)c(=O)[nH]c1=O (centres unmarked),14.1
17,C(=N\n1cnnc1)/c1ccc(-c2ccccc2)cc1,0.629
18,O=[N+]([O-])c1cc(CN2CCCC2)c2cccnc2c1O,-0.841
19,CCCCCn1c(=O)c(C(=O)NCc2ccccn2)c(O)c2ccccc21,1.29

row,SMILES,"hERG current change (%, negative = inhibition) at 1uM [%]"
1,Cc1c(Nc2ncnc3c2cnn3-c2ccccc2)c(=O)n(-c2ccccc2)n1C,10.6
2,CC(C)Oc1cc(-n2c(=S)[nH]c3ccccc3c2=O)c(Cl)cc1Cl,13.8
3,O=C1c2ccccc2C(=O)N1CCCc1c[nH]c2ccc(Cl)cc12,-8.51
4,Cc1cccc(N2CCN(C(=O)CC(NC(=O)c3ccccc3)c3ccccc3)CC2C)c1 (centres unmarked),-4.83
5,Cc1ccccc1C(=O)NNC(=O)c1cccc([N+](=O)[O-])c1,13.8
6,COc1cc(/C=N/NC(=O)Cc2cccs2)c([N+](=O)[O-])cc1OC,2.12
7,Cc1nn(S(=O)(=O)N(C)C)c(C)c1CN1C(=O)c2ccccc2C1=O,4.75
8,COc1cccc(NC(=O)CNC(=O)c2cccs2)c1,5.16
9,Clc1ccc(-c2noc(/C=C/c3ccccc3)n2)cc1,19
10,CC(/C=C/c1ccccc1)=N\NC(=O)CCc1ccccc1,10.7
11,CC(C)=CCCC(C)CN(C)CCc1ccccn1 (centres unmarked),-10.9
12,COc1ccc(OCCCC(=O)OC(C)C(=O)Nc2ccc(C)cc2)cc1 (centres unmarked),-1.32
13,Cc1[nH]c2ccccc2c1C(=O)C(=O)NC1CC1,17.6
14,Cc1ccc(C2=NS(=O)(=O)N(C)C(C(=O)Nc3ccc4c(c3)OCO4)=C2)cc1,7.49
15,CCOC(=O)C1CCCN(S(=O)(=O)c2cc(OCC(=O)NC3CCCCC3)c(C)cc2Cl)C1 (centres unmarked),-4.51
16,Cc1cccc(CC2S/C(=N/c3cccc(C)n3)NC2=O)c1 (centres unmarked),7.59
17,N#Cc1cnc(SCC(=O)NNC(=O)COc2cccc3ccccc23)nc1N,2.06
18,Cc1ccc(-n2c(C)nc3oc4ccccc4c(=O)c3c2=O)cc1,10.5
19,COc1cccc(N2C(=O)/C(=C\c3cccs3)NC2=S)c1,16.8

row,SMILES,"hERG current change (%, negative = inhibition) at 1uM [%]"
1,COc1ccccc1NCC(O)Cn1c2ccccc2c2ccccc21 (centres unmarked),-0.495
2,CCCCN(C(=O)C1=COCCO1)c1c(N)n(CCCC)c(=O)[nH]c1=O,3.66
3,CC(C)C(C)NC(=O)CN1C(=O)NC(C)(c2ccc3ccccc3c2)C1=O (centres unmarked),15.3
4,COc1ccc(OC)c(-c2csc(NC(=O)C3=COCCO3)n2)c1,12.1
5,Cc1cccc(N(CC(=O)NC(C)(C)C)C(=O)CNC(=O)c2cccs2)c1,13.5
6,Cc1ccc(C)c2[nH]c(=O)c(CN(Cc3cccnc3)C(=S)NCc3ccco3)cc12,-3.08
7,COc1ccc(C2C(C#N)=C(N)N(c3sc4c(c3C#N)CCCC4)C3=C2C(=O)CC(C)(C)C3)cc1 (centres unmarked),5.64
8,COc1nc2c(c(-c3cc(Br)cs3)c1C#N)Cc1ccccc1-2,14.4
9,CCCC1=Nc2cc(C(=O)N3CCC(C(N)=O)CC3)ccc2Sc2ccccc21,15.9
10,CCCCCSc1nnc(N)s1,7.57
11,COc1ccc(/C=C/C(=O)N/C(=C\c2ccco2)C(=O)NCCc2nc3ccccc3[nH]2)cc1,-18.2
12,CN(Cc1c(F)cccc1Cl)C(=O)CNC(=O)c1sc2ccccc2c1Cl,8.4
13,O=C(COC(=O)C1CC(O)CN1S(=O)(=O)c1ccc(Cl)cc1)c1cccc(Cl)c1 (centres unmarked),34.1
14,COc1ccccc1C(=O)Nc1ccc(S(=O)(=O)Nc2cc(C)on2)cc1,9.63
15,C/C(CC(=O)Nc1cc(Cl)ccc1C)=N\NC(=O)C(=O)N1CCCC1,14.7
16,Cc1cc2c(cc1S(=O)(=O)CCC(=O)N1CC(C)CC(C)C1)OCC(=O)N2 (centres unmarked),-13.6
17,O=C(CNS(=O)(=O)c1ccccc1)OCC(=O)c1c[nH]c2ccccc12,7.69
18,CSCc1cccc(C(=O)OC(C)C(=O)Nc2c(C)n(C)n(-c3ccccc3)c2=O)c1 (centres unmarked),8.97
